# Data: PubChem BioAssay AID686971 (National Center for Advancing Translational Sciences (NCATS), 2013)
# Screen size: about 360,000 compounds; about 7,500 (2.1%) were called active. Inconclusive results, whose numbers are uncertain, are shown with a selection of clear calls. Calls follow the shape of the dose curve; as a rule, active = well fitted cell-killing curve with a large enough effect; inconclusive = small, poorly fitted or top-dose-only effect, or effect the other way, or another doubt; inactive = no such curve, though single readings can be large or run the other way. No potency is given beside an inconclusive call; the fits are too rough.
# Test: qHTS for induction of synthetic lethality in tumor cells producing 2HG: qHTS for the HT-1080-IDH1KD cell line;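 as to activity, negative = toxicity: 0% = DMSO wells and -100% = cell-free medium wells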
# Details: HT-1080 IDH1 knockdown viability, ATP luminescence, 48 h; activity, negative = toxicity: at 46.1 µM (top of the series) unless noted
# Method in brief: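 Assay cells: HT-1080 with IDH1 knockdown, 750 per well, RPMI/5% FBS. Exposure: 48 h at 37 °C following 2 h pre-incubation. Read: CellTiter-Glo luminescence; fitted concentration-response, curve class assigned.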
# Potency is read from the fitted curve at half-maximal effect; tags tell the direction and shape of the fitted curve.
Compound,Potency,"activity, negative = toxicity"
CCCCNC(=O)C1(C)CCCCN1C(=O)c1ccc2c(c1)C(C)(C)CCC2(C)C (centres undefined),"inconclusive [cytotoxic, single point]",–
CCOC(=O)C1=C(c2ccccc2)NC(SCC(=O)Nc2ccc(C)cc2)=C(C#N)C1c1ccco1 (centres undefined),"inconclusive [cytotoxic, single point]",–
Cc1onc(-c2ccccc2)c1C(=O)N/N=C/C(Br)=C/c1ccccc1,inactive,–
COc1ccc(-c2cc(C3CCN(Cc4cccc(C(F)(F)F)c4)CC3)[nH]n2)cc1,"inconclusive [cytotoxic, single point]",–
COCCNC(=O)c1cc2c(c(-c3cccc(C#Cc4ccc(OC)c(OC)c4)c3)n1)[C@@H](CCO)N(S(=O)C(C)(C)C)C2 (some centres undefined),"inconclusive [cytotoxic, single point]",–
O=Nc1c(-c2c(O)[nH]c3cc(Br)ccc23)[nH]c2ccccc12,active: 8.2 µM,–
Cc1ccc(N(C(=O)CS(=O)CC(=O)Nc2ccc(F)cc2)C(C)C(=O)NC(C)(C)C)cc1 (centres undefined),inactive,–
Cc1nnc(SCc2cc(=O)[nH]c(/N=C(\N)Nc3ccccc3)n2)s1,active: 18.4 µM,–
O=S1(=O)CC(N2CCN(CCO)CC2)CN1Cc1cn(Cc2ccc(F)cc2)nn1 (centres undefined),inactive,–
COC(=O)c1[nH]c2cccc(OC)c2c1NC(=O)C(C)N1CCC(C)CC1 (centres undefined),"inconclusive [cytotoxic, single point]",–
Clc1ccc(CSc2nc3ccncc3[nH]2)cc1,"inconclusive [cytotoxic, single point]",–
COC(=O)c1ccc(C(=O)NC2CCCc3c2cnn3-c2cc(F)cc(F)c2)nc1 (centres undefined),active: 16.4 µM,–
OC(c1ccccc1)(c1nc(-c2cccc(C(F)(F)F)c2)cs1)C(F)(F)F (centres undefined),active: 16.4 µM,–
CS(=O)(=O)Nc1cccc(NC(=O)C2Cc3c(-c4cccc(F)c4)ccnc3O2)c1 (centres undefined),"inconclusive [cytotoxic, full curve]",–
Cn1cc(CN2CCCC(C(=O)Nc3ccc(-c4cccc(F)c4)cc3)C2)cn1 (centres undefined),–,inconclusive: -32.7% [cytotoxic]
Cc1noc(C)c1CSc1nnc(C)c(=O)[nH]1,inactive,–
Cc1cccc(NC(=O)N(Cc2cc3cc(C)cc(C)c3[nH]c2=O)CC2COCCO2)c1 (centres undefined),"inconclusive [cytotoxic, single point]",–
COc1ccc(C2c3c(oc4ccc(Cl)cc4c3=O)C(=O)N2CCN2CCOCC2)cc1 (centres undefined),"inconclusive [rising, partial curve]",–
COc1cc(C=CC(=O)OCC=Cc2ccc3c(c2)OCO3)cc(OC)c1OC,inactive,–
